Experimental data from the supplement of paper PMC3334620.
The full ranking holds about 33,000 sequences; the median of “E-score (-0.5 to 0.5)” is about -0.053, and the highest 2% start at about 0.37. The list shows a part of the results.

Each sequence was assayed against Hap1 (UniProt P0CE41) (assay: PBM E-score (8-mer binding enrichment) (E-score (-0.5 to 0.5)); higher = stronger / more preferred TF binding; most listed sequences are background and not binding sites). Conditions: protein concentration: 200 nM; construct: GST-DNA-binding domain.
Sequence of UniProt P0CE41 (P0CE41 whole entry, the tested form may be a part): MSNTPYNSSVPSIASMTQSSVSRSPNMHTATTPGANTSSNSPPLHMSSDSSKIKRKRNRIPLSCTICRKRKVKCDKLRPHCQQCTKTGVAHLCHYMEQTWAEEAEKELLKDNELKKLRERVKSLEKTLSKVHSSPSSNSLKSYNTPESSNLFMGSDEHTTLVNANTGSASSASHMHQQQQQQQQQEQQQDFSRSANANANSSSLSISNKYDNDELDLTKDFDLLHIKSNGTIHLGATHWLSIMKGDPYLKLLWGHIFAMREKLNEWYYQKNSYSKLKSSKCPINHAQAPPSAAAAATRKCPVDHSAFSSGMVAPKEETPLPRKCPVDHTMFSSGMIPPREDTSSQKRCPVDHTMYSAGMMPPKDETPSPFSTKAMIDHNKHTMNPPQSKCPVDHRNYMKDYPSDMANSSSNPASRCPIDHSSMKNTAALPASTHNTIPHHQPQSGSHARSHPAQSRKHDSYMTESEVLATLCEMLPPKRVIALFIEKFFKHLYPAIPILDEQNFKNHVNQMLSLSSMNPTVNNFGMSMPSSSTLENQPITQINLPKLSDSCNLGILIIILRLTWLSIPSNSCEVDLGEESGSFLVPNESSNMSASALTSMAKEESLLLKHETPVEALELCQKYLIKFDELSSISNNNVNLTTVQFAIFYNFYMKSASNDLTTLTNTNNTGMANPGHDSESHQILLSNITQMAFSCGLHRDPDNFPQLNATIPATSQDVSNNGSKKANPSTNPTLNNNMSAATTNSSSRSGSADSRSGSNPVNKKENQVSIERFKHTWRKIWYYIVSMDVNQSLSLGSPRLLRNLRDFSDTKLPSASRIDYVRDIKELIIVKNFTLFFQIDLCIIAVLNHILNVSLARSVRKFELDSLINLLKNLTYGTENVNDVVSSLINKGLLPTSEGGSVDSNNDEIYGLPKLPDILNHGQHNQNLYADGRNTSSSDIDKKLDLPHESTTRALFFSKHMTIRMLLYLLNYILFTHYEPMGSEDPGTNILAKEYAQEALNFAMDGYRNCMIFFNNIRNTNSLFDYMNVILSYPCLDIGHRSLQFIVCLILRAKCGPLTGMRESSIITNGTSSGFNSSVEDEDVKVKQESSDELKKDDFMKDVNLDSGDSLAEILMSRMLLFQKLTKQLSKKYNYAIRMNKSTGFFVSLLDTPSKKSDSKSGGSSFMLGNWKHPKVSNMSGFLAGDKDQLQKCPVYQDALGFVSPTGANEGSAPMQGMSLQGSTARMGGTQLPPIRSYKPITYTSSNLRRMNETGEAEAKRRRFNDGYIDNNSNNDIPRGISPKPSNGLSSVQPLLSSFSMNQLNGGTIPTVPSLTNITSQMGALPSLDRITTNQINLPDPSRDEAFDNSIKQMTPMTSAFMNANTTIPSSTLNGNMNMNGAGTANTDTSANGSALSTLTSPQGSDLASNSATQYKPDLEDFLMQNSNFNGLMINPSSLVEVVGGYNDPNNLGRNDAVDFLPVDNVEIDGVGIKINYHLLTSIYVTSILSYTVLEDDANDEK
Summary of the method: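 Yeast transcription factors, full-length or as DNA-binding domains, were expressed with a GST tag using PURExpress in vitro transcription/translation. At about 100-200 nM they were applied to universal all-10-mer Agilent arrays, double-stranded by primer extension on fresh or once-stripped slides. Fluorescent anti-GST detected bound protein, and masliner normalised the scans. E-scores for ungapped eight-base words, pooled with reverse complements, came from the Universal PBM Analysis Suite.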

Sequence | PBM E-score
ATCGGTGC | 0.258
CTGCATTC | -0.0182
CAACACAC | -0.196
AAGTCGTC | -0.0478
GACAGAGC | -0.162
AACTGGGA | -0.061
GCTACCCA | -0.146
AAAAAGGG | -0.0854
AGGGAAAA | -0.127
AGAGGGTC | -0.25
AGTGTAGA | -0.389
TACCCCTA | -0.146
TAGATCTA | -0.0902
ATATCAAA | 0.039
AGCCGTTC | -0.0405
CGCAAGCG | -0.188
GGTCGGAC | 0.342
CCTCAGGA | -0.106
AAAACCCA | 0.0982
GCTCGCAA | -0.143
ACTGGGTG | -0.124
ACTCTTTC | -0.154
ATCTAGAA | -0.142
CCTTCTGA | -0.147
ACTCGATG | -0.129

Sequence | PBM E-score
CAGGCCTG | -0.0909
CGCAGGGA | -0.0967
ATAAGCCC | 0.195
GGATACGA | -0.0114
ATGATAAA | 0.0373
ATATACGG | 0.184
CCCCAAAA | -0.133
CATCTAGG | -0.185
CCTAATAA | -0.0541
CTTCGTAA | -0.226
GGGTTCCA | 0.135
ACTGCAGG | -0.33
GAGCCCTC | -0.0963
GTGCTATA | -0.195
CTTCAAGC | -0.221
CAGAGTTA | -0.21
CGACCGTA | 0.0335
ACGATTGA | -0.0308
CCACCCGA | 0.259
ATAGGAAC | -0.246
CCGGCCCG | 0.434
GGTATACA | -0.0452
AAACAGAG | -0.247
ATACCTTG | -0.105
AGGCATAT | -0.181

Sequence | PBM E-score
CATTTGCG | 0.105
AGTGCGAA | -0.0821
CTAGCCAA | -0.144
AATACTCT | -0.201
ATCCCTCA | 0.0132
TACGTTAA | -0.125
AGAATCTC | -0.0657
CGTACCCA | -0.125
GCTCATTA | -0.0231
ATTACGGC | 0.101
GTTGGAAA | -0.0251
ATAATTTA | -0.0658
ACGTCCAG | -0.113
AGAAGACT | -0.226
ACCTAGGA | -0.114
GCCGGCAA | 0.373
AAAGGGAG | -0.27
CTATTGTA | -0.0441
CGCTTGTA | 0.249
GAGTCACC | -0.115
ACGCCAGG | -0.0431
GGAATGCC | 0.191
AACTTACT | -0.0986
TCATCTCA | -0.112
CCGATGTC | 0.295

Sequence | PBM E-score
CAGCTAAC | -0.187
ACACTGGG | -0.115
ATATCTTA | -0.0336
CGACCTTA | 0.0924
AAGTTCTA | 0.00638
AATAGGTA | -0.145
AGATGTGC | -0.078
AAAACCAT | -0.0143
TTATTGAA | -0.295
CGGTGGCA | -0.0459
GCACCACA | -0.168
TAACGAGA | -0.143
AGCACCAG | -0.125
CCGCCTCC | 0.0265
CCCATGGA | -0.191
CATTGAAA | -0.0176
GCCGCTAA | 0.287
AGCTGTAC | 0.112
ATTCATGG | -0.137
CAATTCTA | -0.177
ACCTGCAA | -0.255
ATACATGA | -0.295
CGCCAAGA | -0.172
CATAGTCC | 0.0144
AGAACCAT | -0.122

Sequence | PBM E-score
TAATTTAA | -0.0891
GATCTGCA | 0.0206
ACGCAAGC | -0.202
TCTTCTAA | -0.0562
ATGATCAC | -0.0881
AACATATT | -0.0778
GGTCATTA | 0.0807
ACGCCGCT | 0.108
CACCGTGA | -0.0173
ACCCGCAG | 0.139
AAACCTAC | -0.148
AAGCCGCC | 0.104
ACTAAGGG | -0.0353
AGAGTACC | -0.0888
AGCAGTTA | -0.0815
AATACCTC | -0.00341
CTTCTCTA | -0.267
GGATGAAA | 0.17
CATGGAAC | -0.105
CTTCTAGC | -0.0959
CCACTGCC | -0.0683
CTCAAGAA | -0.123
ACAAAAAT | -0.0901
AACACCAT | -0.0255
AGAAGTGA | -0.196

Sequence | PBM E-score
ATCTTAGC | -0.0669
ATAACGCG | 0.171
AACGCAAA | 0.065
GCATTAAA | -0.102
CGGCGTAC | 0.267
GATAGCGC | 0.0877
AGATGGCC | 0.11
ACTACTCG | 0.13
CCGAAGGC | 0.256
AAAAAAGC | -0.123
CACTATCC | -0.0832
CCGATGGC | 0.204
GATCGGCA | 0.206
TCGACAGA | -0.329
CGCGACCC | 0.00906
TGCTAAAA | -0.0739
CAATTCTG | -0.284
GCTGAATA | -0.281
AATGGTCA | -0.179
ATTGTTTG | -0.163
TCAGTTCA | -0.153
GTGTGAAC | -0.107
AACCCTGT | -0.129
ACTTGCAA | -0.093
AAGGTAAC | -0.049

Sequence | PBM E-score
TGGGCACA | -0.229
ATGGGCAA | -0.0279
AGCCCTTG | -0.311
GATTGCTA | -0.236
GGGAGAAC | -0.0503
TAGATCGA | -0.101
ATTTAGGG | 0.197
ACGCATTA | -0.14
AGGATACT | -0.191
AGAATAGA | -0.0835
ACCAGCAT | -0.199
ACGGAAGT | 0.319
CGGATGTC | 0.35
CCGTCACC | 0.0705
ACATCAGG | -0.132
AGAGGGCT | -0.318
AACGTTCT | -0.016
ATGCCATA | -0.292
CGAATTAG | -0.0666
GCGGACTA | 0.307
CACCTTCG | -0.00991
GGGTATAC | 0.262
TCGCTGAA | -0.0999
ATAAGTGG | -0.0671
AACGTGCG | 0.023

Sequence | PBM E-score
CTACTTCA | -0.134
CGCACCAC | -0.0674
AGGCAACA | -0.2
GGGCGGTA | 0.315
AGGCGGAA | 0.0183
TCGCACAA | -0.054
ATACATTG | 0.0247
ATGTAGGC | 0.00509
CCTCTACG | -0.189
GCAGATCA | -0.2
ATTATAGG | -0.045
AAACCAAC | -0.0722
CAAGTGCA | -0.435
AATTACAC | 0.0385
ATCGTATA | 0.0642
TAATCAAA | 0.197
GCAATTAC | 0.173
AAACCTAT | -0.0917
CAATAAGG | -0.149
ACTGACCA | -0.161
ATGGCGGC | 0.195
ACACCAAT | 0.0155
ACCAGGAT | 0.0532
CCTCCGGC | 0.399
CTATATGA | -0.0844

Sequence | PBM E-score
TCCTGACA | -0.299
ACTGTACA | -0.321
TAAAAAAA | -0.0743
GGTTGAGA | 0.00778
TATCTGGA | -0.108
ACTTCTAC | -0.119
CGCCGACA | 0.215
CACGCCGC | 0.0522
AGCGTGTC | -0.213
ATTCCTAG | -0.183
ACGGCTTG | -0.117
CGGTGTGC | 0.165
CAGCCAAC | -0.219
CTATATAA | -0.207
CAGAACTG | -0.013
AATATTCT | -0.0515
AGCGGTAT | 0.144
CGGACCCA | 0.346
AAGGCAGG | -0.174
AACGTGAG | -0.193
GTGCATCA | -0.21
AGAGCGTC | -0.225
GGCAGCTA | -0.00611
AGGTCAAT | -0.198
CCAACCCA | -0.291

Sequence | PBM E-score
ATTCAGGC | -0.122
CCACGGTC | -0.0373
ACGACCAT | -0.254
AAAGGCGA | -0.0146
GGCGCTAC | 0.0372
ACACGGTG | 0.072
CGGATCGA | 0.247
ATCTAGGA | -0.0897
AATAAGGT | 0.109
ATGATAAG | -0.054
ACAAGCGT | -0.101
ATCTTTAG | 0.0582
TATACGCA | 0.0553
CCACTCGG | 0.219
AGTCGCGC | 0.101
CCGATGAC | 0.292
CGTCCTGC | -0.249
CGATGACC | 0.228
ACAGCGAT | 0.00087
ACCAATTC | 0.0498
CGGCTCCA | 0.232
ATTCCGCC | 0.295
CAAACAGA | -0.112
CATGTTGC | -0.0889
CCAGTGCG | 0.0478

Sequence | PBM E-score
GCATTCCA | -0.00998
ATGGTGAA | -0.0453
AAAACTAA | -0.208
CTGATGCA | -0.313
ATGAATCC | 0.108
GTTAAGTA | -0.074
CTCATATA | -0.0576
CGCATCCC | -0.00146
AATATCGA | 0.0281
CAGCCGAA | 0.178
CACGGGAG | -0.222
ACGGGCCT | 0.188
CGCCGGTA | 0.345
GATCCGGC | 0.375
AAACTATT | -0.0483
CGCGAAAC | 0.107
AGCGCAGA | -0.0791
CGTACGTA | -0.0805
ACCGATAT | 0.43
CGAAACCA | 0.0663
CATCAATA | -0.0745
AACATTAC | 0.0352
CGAACCCG | 0.255
CAATAGGA | -0.198
ACAAACGC | 0.113

Sequence | PBM E-score
ACGCCGAA | 0.313
TAGTAATA | -0.19
AGATGGGC | 0.0565
ACTACCAT | -0.226
ACTAGGGA | -0.234
AAGCTTAT | -0.0384
AACAACAC | -0.24
AAGAGACT | -0.132
CCATTCGG | 0.253
CTCGGTAA | 0.273
AGATATCT | -0.104
ACCCGTAT | -0.0216
GCGTCTAC | -0.0531
AGATTCTA | -0.0893
AATTAAAC | 0.104
CAAAGTAC | -0.251
CACGAATA | -0.219
AGGCTTAG | -0.166
GCAAGGAA | 0.0246
CAGGTCGG | 0.128
ACCACTTA | -0.00971
GCAGGAGA | 0.033
CTATCCGC | 0.257
GACCCAGC | -0.262
CTTATTGA | -0.115

Sequence | PBM E-score
ATACTACG | -0.0503
CAGCCATC | -0.087
AGCGGGCG | 0.222
GCCAGGGA | -0.285
ATCACAAA | -0.11
CACAGCCG | 0.186
CCGTTAAA | 0.35
AGTCCTTA | -0.245
CTCAGAAC | -0.199
AACATCGA | -0.0653
ATTGCTAG | -0.213
ACAGGCTC | -0.175
GGAGCTCA | -0.0213
CGGTTCAA | 0.188
GGGGTAAC | 0.0191
AGCGTGGA | -0.217
CGACAGAA | 0.0432
ACAAAGGG | -0.162
CGGCTACG | 0.111
GAGTCTAA | 0.0212
CATCCGAG | 0.265
CGTGTTAA | -0.311
GGCACACA | 0.0401
GCTTTCAA | -0.124
CGTGCCAC | -0.101

Sequence | PBM E-score
AGAAGTCA | -0.205
ATACTGTC | -0.0704
CTCCTGCA | -0.144
AGGCGCGC | 0.0364
AGAGAACG | -0.258
ATGTTTAA | -0.182
ATTTTGCG | -0.0734
GCGCCCCC | -0.115
CCGTCGAG | 0.0147
AAATAATT | 0.156
AAGGGTTA | -0.115
GCTCTGTA | -0.234
AGTAAAAA | -0.048
AGTAGGGA | -0.0918
ATCTCCTC | 0.0444
CTACGCTC | 0.00814
ACCACCGT | 0.0464
AATGAACC | -0.0442
AATATTCC | 0.231
